Results: the supplement of paper PMC4967469

Compound: C=CC(=O)Nc1cccc(Nc2nc(NC3CCC(N(C)C)CC3)nc3c2ncn3C(C)C)c1 [WZ3105]
Assay: Viability of human cancer cell lines after 72 h of drug (GDSC screen)
Conditions: top dose inferred
Description: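 Human cancer cell lines in 384-well plates, medium with 10% serum, drug for 72 h over a 256-fold dose range (nine 2-fold or five 4-fold steps up to the top dose). Adherent lines were fixed and stained with the nucleic acid dye Syto60, suspension lines read with resazurin; signal relative to control wells, capped at 0 and 100%. One two-parameter sigmoid per drug and line, fitted in a mixed model over all curves with the slope shared within a line.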

| Cell Line | AUC | IC50 [nM] |
| --- | --- | --- |
| Farage (B-cell lymphoma, suspension, top dose 1.28 µM) | 0.6 | 143 |
| G-292 Clone A141B1 (osteosarcoma, adherent, top dose 1.28 µM) | 0.882 | > 1280 |
| G-361 (melanoma, adherent, top dose 1.28 µM) | 0.803 | 606 |
| G-401 (kidney, adherent, top dose 1.28 µM) | 0.935 | > 1280 |
| G-402 (soft tissue, adherent, top dose 1.28 µM) | 0.799 | 869 |
| G-MEL (melanoma, adherent, top dose 1.28 µM) | 0.889 | > 1280 |
| GAK (melanoma, adherent, top dose 1.28 µM) | 0.985 | > 1280 |
| GAMG (glioma, adherent, top dose 1.28 µM) | 0.731 | 377 |
| GB-1 (glioma, adherent, top dose 1.28 µM) | 0.963 | > 1280 |
| GCIY (stomach, adherent, top dose 1.28 µM) | 0.975 | > 1280 |
| GCT (soft tissue, adherent, top dose 1.28 µM) | 0.888 | 1270 |
| GDM-1 (acute myeloid leukaemia, suspension, top dose 1.28 µM) | 0.686 | 259 |
| GI-1 (glioma, adherent, top dose 1.28 µM) | 0.78 | 504 |
| GI-ME-N (neuroblastoma, adherent, top dose 1.28 µM) | 0.572 | 135 |
| GMS-10 (glioma, adherent, top dose 1.28 µM) | 0.819 | 723 |
| GOTO (neuroblastoma, adherent, top dose 1.28 µM) | 0.883 | > 1280 |
| GP5d (large intestine, adherent, top dose 1.28 µM) | 0.78 | 470 |
| GR-ST (lymphoblastic leukaemia, suspension, top dose 1.28 µM) | 0.572 | 132 |
| GRANTA-519 (B-cell lymphoma, suspension, top dose 1.28 µM) | 0.718 | 306 |
| GT3TKB (stomach, adherent, top dose 1.28 µM) | 0.979 | > 1280 |
| H4 (glioma, adherent, top dose 1.28 µM) | 0.978 | > 1280 |

| Cell Line | AUC | IC50 [nM] |
| --- | --- | --- |
| H9 (lymphoid neoplasm, suspension, top dose 1.28 µM) | 0.679 | 228 |
| H290 (mesothelioma, adherent, top dose 1.28 µM) | 0.989 | > 1280 |
| H513 (mesothelioma, semi-adherent, top dose 1.28 µM) | 0.896 | > 1280 |
| H2369 (mesothelioma, adherent, top dose 1.28 µM) | 0.976 | > 1280 |
| H2373 (mesothelioma, adherent, top dose 1.28 µM) | 0.761 | 564 |
| H2461 (mesothelioma, adherent, top dose 1.28 µM) | 0.965 | > 1280 |
| H2591 (mesothelioma, adherent, top dose 1.28 µM) | 0.805 | 890 |
| H2595 (mesothelioma, adherent, top dose 1.28 µM) | 0.909 | > 1280 |
| H2722 (mesothelioma, adherent, top dose 1.28 µM) | 0.797 | 738 |
| H2731 (mesothelioma, adherent, top dose 1.28 µM) | 0.948 | > 1280 |
| H2795 (mesothelioma, adherent, top dose 1.28 µM) | 0.838 | 849 |
| H2803 (mesothelioma, adherent, top dose 1.28 µM) | 0.982 | > 1280 |
| H2804 (mesothelioma, adherent, top dose 1.28 µM) | 0.917 | > 1280 |
| H2818 (mesothelioma, adherent, top dose 1.28 µM) | 0.988 | > 1280 |
| H2869 (mesothelioma, adherent, top dose 1.28 µM) | 0.69 | 313 |
| H3118 (head and neck, adherent, top dose 1.28 µM) | 0.778 | 566 |
| H3255 (lung adenocarcinoma, adherent, top dose 1.28 µM) | 0.795 | 724 |
| H-EMC-SS (chondrosarcoma, adherent, top dose 1.28 µM) | 0.865 | > 1280 |
| HA7-RCC (kidney, adherent, top dose 1.28 µM) | 0.953 | > 1280 |
| HAL-01 (lymphoblastic leukaemia, suspension, top dose 1.28 µM) | 0.989 | > 1280 |
| HARA (lung squamous cell carcinoma, adherent, top dose 1.28 µM) | 0.609 | 168 |

| Cell Line | AUC | IC50 [nM] |
| --- | --- | --- |
| HC-1 (hairy cell leukaemia, suspension, top dose 1.28 µM) | 0.523 | 92.1 |
| HCC38 (breast, adherent, top dose 1.28 µM) | 0.73 | 385 |
| HCC70 (breast, adherent, top dose 1.28 µM) | 0.491 | 75.7 |
| HCC1143 (breast, adherent, top dose 1.28 µM) | 0.657 | 260 |
| HCC1187 (breast, suspension, top dose 1.28 µM) | 0.508 | 84.2 |
| HCC1395 (breast, adherent, top dose 10.24 µM) | 0.886 | > 10200 |
| HCC1419 (breast, adherent, top dose 1.28 µM) | 0.789 | 851 |
| HCC1428 (breast, adherent, top dose 1.28 µM) | 0.757 | 478 |
| HCC1500 (breast, adherent, top dose 1.28 µM) | 0.573 | 127 |
| HCC1569 (breast, adherent, top dose 1.28 µM) | 0.624 | 198 |
| HCC1599 (breast, suspension, top dose 10.24 µM) | 0.24 | 100 |
| HCC1806 (breast, adherent, top dose 1.28 µM) | 0.635 | 182 |
| HCC1937 (breast, adherent, top dose 1.28 µM) | 0.673 | 263 |
| HCC1954 (breast, adherent, top dose 1.28 µM) | 0.705 | 337 |
| HCC2157 (breast, suspension, top dose 1.28 µM) | 0.334 | 26.9 |
| HCC2218 (breast, suspension, top dose 10.24 µM) | 0.251 | 100 |
| HCC2998 (large intestine, adherent, top dose 10.24 µM) | 0.44 | 442 |
| HCC-15 (lung squamous cell carcinoma, adherent, top dose 1.28 µM) | 0.865 | > 1280 |
| HCC-33 (small cell lung carcinoma, adherent, top dose 1.28 µM) | 0.639 | 195 |
| HCC-44 (lung adenocarcinoma, adherent, top dose 1.28 µM) | 0.699 | 285 |
| HCC-56 (large intestine, adherent, top dose 1.28 µM) | 0.871 | 1260 |

| Cell Line | AUC | IC50 [nM] |
| --- | --- | --- |
| HCC-78 (lung adenocarcinoma, adherent, top dose 1.28 µM) | 0.729 | 406 |
| HCC-827 (lung adenocarcinoma, adherent, top dose 1.28 µM) | 0.799 | 721 |
| HCE-4 (oesophagus, adherent, top dose 1.28 µM) | 0.986 | > 1280 |
| HCT-15 (large intestine, adherent, top dose 1.28 µM) | 0.987 | > 1280 |
| HCT-116 (large intestine, adherent, top dose 1.28 µM) | 0.668 | 228 |
| HD-MY-Z (Hodgkin lymphoma, adherent, top dose 1.28 µM) | 0.591 | 142 |
| HDLM-2 (Hodgkin lymphoma, suspension, top dose 1.28 µM) | 0.87 | 1160 |
| HDQ-P1 (breast, adherent, top dose 1.28 µM) | 0.949 | > 1280 |
| HEC-1 (endometrium, adherent, top dose 1.28 µM) | 0.984 | > 1280 |
| HEL (acute myeloid leukaemia, semi-adherent, top dose 1.28 µM) | 0.94 | > 1280 |
| HGC-27 (stomach, adherent, top dose 1.28 µM) | 0.762 | 394 |
| HH (T-cell leukaemia, suspension, top dose 1.28 µM) | 0.547 | 112 |
| HL-60 (acute myeloid leukaemia, suspension, top dose 1.28 µM) | 0.578 | 128 |
| HLE (liver, adherent, top dose 1.28 µM) | 0.964 | > 1280 |
| HMV-II (melanoma, adherent, top dose 1.28 µM) | 0.738 | 452 |
| HN (head and neck, adherent, top dose 1.28 µM) | 0.913 | > 1280 |
| HO-1-N-1 (head and neck, adherent, top dose 1.28 µM) | 0.882 | 1160 |
| HO-1-u-1 (head and neck, adherent, top dose 1.28 µM) | 0.909 | > 1280 |

A lower IC50 marks a more sensitive line; where the fit passes the top or lowest dose, that dose stands as a limit. AUC is the area under the same curve over the 256-fold range up to the top dose, as a fraction; values near 1 show little effect. A top dose marked as inferred was calculated from the reported fits.
